Data from PubChem BioAssay AID743279 (National Center for Advancing Translational Sciences (NCATS), 2014).
The campaign covered roughly 360,000 compounds. About 17,000 (4.7%) were called active. This list was built around the results that the source calls inconclusive (neither active nor inactive); the mix of calls is not that of the screen. Cut-off read from the data, not from the text of the source: active = activity change below about -50%; inconclusive = mostly about -30% to -49%; inactive = weaker than that.

Experiment: qHTS for Inhibitors of Inflammasome Signaling: IL-1-beta AlphaLISA Primary Screen
Conditions: THP-1 LPS/ATP IL-1B secretion, 16 h; at 57.5 µM, active compounds read low
Method in brief: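 Secreted IL-1B measured by AlphaLISA bead assay after 16 h compound exposure of THP-1 cells; compounds (final up to 57.5 uM) added 1 h before LPS (250 ng/mL) and ATP (1.25 mM) stimulation; lower signal means less secretion.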
% is set by controls: 0 for no effect and ±100 for the full control effect.

**Q.** For N=c1n(CC(=O)c2cccc([N+](=O)[O-])c2)c2ccccc2n1Cc1ccccc1, which activity change is on record?
**A.** active: -104%

**Q.** With Nc1nc2nc(-c3ccccc3)cc(C(F)(F)F)c2s1 as the compound, how does the activity change read?
**A.** active: -72.8%

**Q.** Which activity change does the source give for O=C(C1CC(=O)N(c2ccc(F)cc2)C1)N1CCN(c2ccccc2)CC1 (configuration not stated) here?
**A.** inconclusive: -34.6%

**Q.** For CCC(C)Nc1ccc(NC(C)CC)cc1 (configuration not stated), which activity change is on record?
**A.** inconclusive: -43.9%

**Q.** Which activity change does the source give for O=C(CCS(=O)(=O)c1ccc(F)cc1)Nc1nc(-c2ccccn2)cs1 here?
**A.** inconclusive: -33.8%

**Q.** With Cc1ccccc1OCCOCCN1CCCCCC1 as the compound, how does the activity change read?
**A.** active: -51.7%

**Q.** Which activity change does the source give for CCCOc1ccc(F)cc1-c1cc(C(=O)Nc2ccc(OC)nc2)[nH]n1 here?
**A.** inconclusive: -45.4%

**Q.** For O=C(NNC(=O)c1ccccc1C(F)(F)F)c1csc(N2CCOCC2)n1, which activity change is on record?
**A.** inconclusive: -42.6%

**Q.** With O=C(Nc1nc(-c2ccccc2)cs1)c1ccc(N2CCOCC2)c([N+](=O)[O-])c1 as the compound, how does the activity change read?
**A.** inconclusive: -47.4%

**Q.** With c1ccc(CN2CCN(c3nc(NCc4ccco4)c4ccccc4n3)CC2)cc1 as the compound, how does the activity change read?
**A.** active: -64%

**Q.** With Cc1nc2c(OCc3ccc(C#N)cc3)cccn2c1N(C)Cc1cccs1 as the compound, how does the activity change read?
**A.** inconclusive: -46%

**Q.** Which activity change does the source give for O=C1NC(=O)C(CC(=O)N(c2ccccc2)C2(C(=O)NC3CCCC3)CCCCC2)N1 (configuration not stated) here?
**A.** inactive: -5.1%

**Q.** With CN(C)C(=O)c1ccc(Nc2nc(-c3cccs3)nc3ccccc23)cc1 as the compound, how does the activity change read?
**A.** active: -74.1%

**Q.** With COc1cccc(OCc2nc(-c3cccc([N+](=O)[O-])c3)no2)c1 as the compound, how does the activity change read?
**A.** inconclusive: -33.5%

**Q.** For Cc1nnc(SC(C)C#N)n1-c1ccccc1 (configuration not stated), which activity change is on record?
**A.** inactive: 13.2%

**Q.** With O=C1c2ccccc2N2C(=O)c3ccccc3C2N1Cc1ccco1 (configuration not stated) as the compound, how does the activity change read?
**A.** inconclusive: -43.1%

**Q.** Which activity change does the source give for O=C(COc1ccc(Br)cc1)N1CCNC1=O here?
**A.** inconclusive: -46.1%

**Q.** With Cc1ccccc1C(=O)NC(CC(C)C)C(=O)NN1C(=O)c2ccccc2C1=O (configuration not stated) as the compound, how does the activity change read?
**A.** inactive: -10.9%

**Q.** Which activity change does the source give for CCCCn1c(N)c(N(CCOC)C(=O)COC(=O)C(C)Oc2ccc(Cl)cc2)c(=O)[nH]c1=O (configuration not stated) here?
**A.** inactive: -12.9%

**Q.** Which activity change does the source give for Cc1ccc(C(C)C)c(OCCNCCc2ccccc2)c1 here?
**A.** active: -90.9%

**Q.** With O=S1(=O)CCS(=O)(=O)C1c1ccccc1 as the compound, how does the activity change read?
**A.** inconclusive: -48.5%

**Q.** For N/C(=N\C(=S)Nc1ccccc1)c1ccccc1, which activity change is on record?
**A.** inactive: 16.1%

**Q.** Which activity change does the source give for CCCC1Cc2nc(Cl)c(C#N)cc2CO1 (configuration not stated) here?
**A.** inactive: 8.6%

**Q.** With COc1cc(O)oc1C=Nc1ccc(C(F)(F)F)cc1 as the compound, how does the activity change read?
**A.** inconclusive: -46.7%

**Q.** Which activity change does the source give for Cc1ccc(Nc2nc(NCCCN3CCOCC3)nc(N)c2[N+](=O)[O-])cc1 here?
**A.** inconclusive: -40.4%

**Q.** Which activity change does the source give for C/C(=N/NC(=O)CN1CCN(Cc2ccccc2Cl)CC1)c1cccs1 here?
**A.** inconclusive: -40.2%

**Q.** Which activity change does the source give for COc1ccc(NC(=O)CN(C)Cc2cccs2)cc1Cl here?
**A.** inconclusive: -33.9%

**Q.** Which activity change does the source give for CCCc1nn2c(-c3ccccc3)nnc2o1 here?
**A.** active: -67%

**Q.** Which activity change does the source give for CCN(c1ccc(OC)cc1)S(=O)(=O)c1ccc2c(c1)CC(C)N2C(=O)C1CC1 (configuration not stated) here?
**A.** inconclusive: -46%

**Q.** For Cc1ccc(S(=O)(=O)N2CCN(CCO)CC2)cc1-c1nnc2c3ccccc3c(C)nn12, which activity change is on record?
**A.** inconclusive: -32.9%

**Q.** With FC(F)(F)c1cc(-c2ccco2)nc(NCc2cccnc2)n1 as the compound, how does the activity change read?
**A.** inconclusive: -37.9%

**Q.** Which activity change does the source give for Cc1ccccc1Nc1nc(NCc2ccco2)c2ccccc2n1 here?
**A.** active: -102%

**Q.** With CC(C)C(=O)N1CCN(c2ccccc2NC(=O)COc2ccc(C3CCCCC3)cc2)CC1 as the compound, how does the activity change read?
**A.** inconclusive: -37.4%

**Q.** Which activity change does the source give for COc1ccccc1Cn1c(=S)[nH]c2cc(C(=O)N3CC(C)CC(C)C3)ccc2c1=O (configuration not stated) here?
**A.** inconclusive: -31.9%

**Q.** Which activity change does the source give for CC1=C(C#N)C(c2cccnc2)C2=C(CC(c3ccc(Cl)cc3)CC2=O)N1 (configuration not stated) here?
**A.** inconclusive: -31.4%

**Q.** With Cc1cccc(-n2ncc(Cl)c(Cl)c2=O)c1 as the compound, how does the activity change read?
**A.** active: -100%

**Q.** Which activity change does the source give for CCc1nc2sc3c(c2c(=O)n1NC(=O)CCl)CCCC3 here?
**A.** active: -76.7%

**Q.** With O=C(CSc1nnc(-c2c[nH]c3ccccc23)o1)N(Cc1ccccc1)c1ccc(F)cc1 as the compound, how does the activity change read?
**A.** active: -65.4%

**Q.** For CCN(CC)C(=O)CSc1nc2c(sc(=S)n2-c2ccccc2)c(=O)n1-c1ccc(OC)c(OC)c1, which activity change is on record?
**A.** inconclusive: -33.6%

**Q.** With COc1ccc(Nc2nc3ccc(C)cn3c(=O)c2/C=N/O)cc1 as the compound, how does the activity change read?
**A.** inactive: -2.98%

**Q.** Which activity change does the source give for COc1ccc(CCNC(=O)c2cn3ccc(C)cc3n2)cc1OC here?
**A.** inactive: 21.6%

**Q.** Which activity change does the source give for COCCSc1ccccc1C(=O)Nc1ccc(Cl)cc1 here?
**A.** inconclusive: -33.9%

**Q.** For Cc1onc(-c2ccccc2)c1CNC(=O)Nc1cccc(Cl)c1, which activity change is on record?
**A.** active: -65.9%

**Q.** Which activity change does the source give for O=C(/C=C/c1cccnc1)c1ccc(F)c(F)c1 here?
**A.** active: -74.8%

**Q.** Which activity change does the source give for CCOC(=O)N(C)c1c(CC)nc2c(OCc3ccc(Cl)cc3Cl)cccn12 here?
**A.** inactive: 0%

**Q.** For CC1CCN(C(=O)c2ccc(S(=O)(=O)Cc3cccc(F)c3)c([N+](=O)[O-])c2)CC1, which activity change is on record?
**A.** active: -86.1%

**Q.** Which activity change does the source give for CC(C)C[C@H]1CNC(=S)N1C[C@H]1CCCN1C[C@H](Cc1ccc(O)cc1)N1C[C@H](Cc2ccc(O)cc2)N(CC2CCCCCC2)C1=S here?
**A.** inconclusive: -38%

**Q.** Which activity change does the source give for CCOC(=O)c1cc(-c2ccccc2)nc2c1c(C)nn2-c1ccccn1 here?
**A.** inconclusive: -44.6%

**Q.** With Cc1cc(NC(=O)c2cnn3cccnc23)n(-c2ccccc2)n1 as the compound, how does the activity change read?
**A.** inconclusive: -45.9%

**Q.** Which activity change does the source give for COc1ccc(S(=O)(=O)Cc2ccc(C(=O)N3CCN(c4cccc(C)c4C)CC3)o2)cc1 here?
**A.** inactive: 7.97%

**Q.** Which activity change does the source give for Cc1cccc(N2CCN(C(=O)NC3CCCCC3)CC2)c1C here?
**A.** active: -55.7%

**Q.** Which activity change does the source give for c1ccc2c(SCc3cn4ccccc4n3)nncc2c1 here?
**A.** inconclusive: -30.4%

**Q.** With COc1ccc2nc(NC(=O)C3CCN(S(=O)(=O)c4cccc5nsnc45)CC3)sc2c1 as the compound, how does the activity change read?
**A.** active: -76.7%

**Q.** For CN(Cc1ccccc1)C(=O)c1ccc([N+](=O)[O-])o1, which activity change is on record?
**A.** inconclusive: -40.8%

**Q.** For O=S(=O)(/N=C(/Nc1cccc2ccccc12)c1ccccc1)c1ccccc1, which activity change is on record?
**A.** inconclusive: -47.1%

**Q.** For Cc1c(Cl)cccc1NC(=S)/C(=C(\[O-])c1ccc(Cl)s1)[n+]1ccccc1, which activity change is on record?
**A.** active: -70.4%

**Q.** Which activity change does the source give for NS(=O)(=O)c1ccc(N=Nc2c(-c3ccccc3)[nH]n(-c3nc(-c4ccccc4)cs3)c2=O)cc1 here?
**A.** inconclusive: -43.9%
